Data: the supplement of paper PMC8728848
This is one part of the list.

Assays:
Experiment in all cases: glycan array binding signal (z-score within array); higher = stronger binding
Settings in all cases: glycan notation: IUPAC condensed, linker removed
[1] = target: Gal(b1-4)GlcNAc(b1-3)Gal(b1-4)GlcNAc(b1-2)[Gal(b1-4)GlcNAc(b1-3)Gal(b1-4)GlcNAc(b1-6)]Man(a1-6)[Gal(b1-4)GlcNAc(b1-3)Gal(b1-4)GlcNAc(b1-2)Man(a1-3)]Man(b1-4)GlcNAc(b1-4)GlcNAc
Procedure, shortened: (§1)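 From the Consortium for Functional Glycomics database, 3228 arrays were curated, keeping only those whose protein sequence was available. Binding is given as a within-array Z-score averaged across arrays sharing a protein sequence and across linkers. Negative Z-scores can be read as non-binding.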

[2] = target: Gal(b1-4)GlcNAc(b1-3)Gal(b1-4)GlcNAc(b1-2)[Gal(b1-4)GlcNAc(b1-3)Gal(b1-4)GlcNAc(b1-6)]Man(a1-6)[Gal(b1-4)GlcNAc(b1-3)Gal(b1-4)GlcNAc(b1-2)Man(a1-3)]Man(b1-4)GlcNAc(b1-4)[Fuc(a1-6)]GlcNAc
Procedure, shortened: as §1

[3] = target: Gal(b1-4)GlcNAc(b1-3)Gal(b1-4)GlcNAc(b1-3)Gal(b1-4)GlcNAc
Procedure, shortened: as §1

[4] = target: Gal(b1-4)GlcNAc(b1-3)Gal(b1-4)GlcNAc(b1-3)Gal(b1-4)GlcNAc(b1-2)Man(a1-3)[Gal(b1-4)GlcNAc(b1-3)Gal(b1-4)GlcNAc(b1-3)Gal(b1-4)GlcNAc(b1-2)Man(a1-6)]Man(b1-4)GlcNAc(b1-4)GlcNAc
Procedure, shortened: as §1

[5] = target: Gal(b1-4)GlcNAc(b1-3)Gal(b1-4)GlcNAc(b1-3)Gal(b1-4)GlcNAc(b1-2)Man(a1-3)[Gal(b1-4)GlcNAc(b1-3)Gal(b1-4)GlcNAc(b1-3)Gal(b1-4)GlcNAc(b1-2)Man(a1-6)]Man(b1-4)GlcNAc(b1-4)[Fuc(a1-6)]GlcNAc
Procedure, shortened: as §1

[6] = target: Gal(b1-4)GlcNAc(b1-3)Gal(b1-4)GlcNAc(b1-3)Gal(b1-4)GlcNAc(b1-2)[Gal(b1-4)GlcNAc(b1-3)Gal(b1-4)GlcNAc(b1-3)Gal(b1-4)GlcNAc(b1-6)]Man(a1-6)[Gal(b1-4)GlcNAc(b1-3)Gal(b1-4)GlcNAc(b1-3)Gal(b1-4)GlcNAc(b1-2)Man(a1-3)]Man(b1-4)GlcNAc(b1-4)[Fuc(a1-6)]GlcNAc
Procedure, shortened: as §1

[7] = target: Gal(b1-4)GlcNAc(b1-3)Gal(b1-4)GlcNAc(b1-3)Gal(b1-4)GlcNAc(b1-3)Gal(b1-4)GlcNAc(b1-2)Man(a1-3)[Gal(b1-4)GlcNAc(b1-3)Gal(b1-4)GlcNAc(b1-3)Gal(b1-4)GlcNAc(b1-3)Gal(b1-4)GlcNAc(b1-2)Man(a1-6)]Man(b1-4)GlcNAc(b1-4)GlcNAc
Procedure, shortened: as §1

[8] = target: Gal(b1-4)GlcNAc(b1-3)Gal(b1-4)GlcNAc(b1-3)Gal(b1-4)GlcNAc(b1-3)Gal(b1-4)GlcNAc(b1-2)Man(a1-3)[Gal(b1-4)GlcNAc(b1-3)Gal(b1-4)GlcNAc(b1-3)Gal(b1-4)GlcNAc(b1-3)Gal(b1-4)GlcNAc(b1-2)Man(a1-6)]Man(b1-4)GlcNAc(b1-4)[Fuc(a1-6)]GlcNAc
Procedure, shortened: as §1

[9] = target: Gal(b1-4)GlcNAc(b1-3)Gal(b1-4)GlcNAc(b1-3)Gal(b1-4)GlcNAc(b1-3)Gal(b1-4)GlcNAc(b1-2)[Gal(b1-4)GlcNAc(b1-3)Gal(b1-4)GlcNAc(b1-3)Gal(b1-4)GlcNAc(b1-3)Gal(b1-4)GlcNAc(b1-6)]Man(a1-6)[Gal(b1-4)GlcNAc(b1-3)Gal(b1-4)GlcNAc(b1-3)Gal(b1-4)GlcNAc(b1-3)Gal(b1-4)GlcNAc(b1-2)Man(a1-3)]Man(b1-4)GlcNAc(b1-4)[Fuc(a1-6)]GlcNAc
Procedure, shortened: as §1

[10] = target: Gal(b1-4)GlcNAc(b1-3)Gal(b1-4)GlcNAc(b1-3)Gal(b1-4)GlcNAc(b1-3)Gal(b1-4)GlcNAc(b1-3)Gal(b1-4)GlcNAc(b1-2)Man(a1-3)[Gal(b1-4)GlcNAc(b1-3)Gal(b1-4)GlcNAc(b1-3)Gal(b1-4)GlcNAc(b1-3)Gal(b1-4)GlcNAc(b1-3)Gal(b1-4)GlcNAc(b1-2)Man(a1-6)]Man(b1-4)GlcNAc(b1-4)GlcNAc
Procedure, shortened: as §1

[11] = target: Gal(b1-4)GlcNAc(b1-3)Gal(b1-4)GlcNAc(b1-3)Gal(b1-4)GlcNAc(b1-3)Gal(b1-4)GlcNAc(b1-3)Gal(b1-4)GlcNAc(b1-2)Man(a1-3)[Gal(b1-4)GlcNAc(b1-3)Gal(b1-4)GlcNAc(b1-3)Gal(b1-4)GlcNAc(b1-3)Gal(b1-4)GlcNAc(b1-3)Gal(b1-4)GlcNAc(b1-2)Man(a1-6)]Man(b1-4)GlcNAc(b1-4)[Fuc(a1-6)]GlcNAc
Procedure, shortened: as §1

[12] = target: Gal(b1-4)GlcNAc(b1-3)Gal(b1-4)GlcNAc(b1-3)Gal(b1-4)GlcNAc(b1-3)Gal(b1-4)GlcNAc(b1-3)Gal(b1-4)GlcNAc(b1-2)[Gal(b1-4)GlcNAc(b1-3)Gal(b1-4)GlcNAc(b1-3)Gal(b1-4)GlcNAc(b1-3)Gal(b1-4)GlcNAc(b1-3)Gal(b1-4)GlcNAc(b1-6)]Man(a1-6)[Gal(b1-4)GlcNAc(b1-3)Gal(b1-4)GlcNAc(b1-3)Gal(b1-4)GlcNAc(b1-3)Gal(b1-4)GlcNAc(b1-3)Gal(b1-4)GlcNAc(b1-2)Man(a1-3)]Man(b1-4)GlcNAc(b1-4)[Fuc(a1-6)]GlcNAc
Procedure, shortened: as §1

[13] = target: Gal(b1-4)GlcNAc(b1-3)Gal(b1-4)GlcNAc(b1-3)Gal(b1-4)GlcNAc(b1-3)Gal(b1-4)GlcNAc(b1-3)Gal(b1-4)GlcNAc(b1-3)Gal(b1-4)GlcNAc(b1-2)Man(a1-3)[Gal(b1-4)GlcNAc(b1-3)Gal(b1-4)GlcNAc(b1-3)Gal(b1-4)GlcNAc(b1-3)Gal(b1-4)GlcNAc(b1-3)Gal(b1-4)GlcNAc(b1-3)Gal(b1-4)GlcNAc(b1-2)Man(a1-6)]Man(b1-4)GlcNAc(b1-4)GlcNAc
Procedure, shortened: as §1

[14] = target: Gal(b1-4)GlcNAc(b1-3)Gal(b1-4)GlcNAc(b1-3)GalNAc
Procedure, shortened: as §1

[15] = target: Gal(b1-4)GlcNAc(b1-3)Gal(b1-4)GlcNAc(b1-3)[Gal(b1-4)GlcNAc(b1-3)Gal(b1-4)GlcNAc(b1-6)]GalNAc
Procedure, shortened: as §1

[16] = target: Gal(b1-4)GlcNAc(b1-3)Gal(b1-4)GlcNAc(b1-6)[Gal(b1-3)]GalNAc
Procedure, shortened: as §1

[17] = target: Gal(b1-4)GlcNAc(b1-3)Gal(b1-4)[Fuc(a1-3)]GlcNAc(b1-3)Gal(b1-4)[Fuc(a1-3)]GlcNAc
Procedure, shortened: as §1

[18] = target: Gal(b1-4)GlcNAc(b1-3)GalNAc
Procedure, shortened: as §1

[19] = target: Gal(b1-4)GlcNAc(b1-3)[Fuc(a1-3)GlcNAc(b1-6)]Gal(b1-4)Glc
Procedure, shortened: as §1

B1: MAL-II (Maackia amurensis), P93248 (protein)
chain: ATSNSKPTQVLLATFLTFFFLLLNNVNSSDELSFTINNFVPNEADLLFQGEASVSSTGVLQLTRVENGQPQQYSVGRALYAAPVRIWDNTTGSVASFSTSFTFVVKAPNPTITSDGLAFFLAPPDSQIPSGRVSKYLGLFNNSNSDSSNQIVAVEFDTYFGHSYDPWDPNYRHIGIDVNGIESIKTVQWDWINGGVAFATITYLAPNKTLIASLVYPSNQTSFIVAASVDLKEILPEWVRVGFSAATGYPTQVETHDVLSWSFTSTLEANSDAATENNVHIARYTA
- glycan array binding signal (z-score) [1]: 0.262
- glycan array binding signal (z-score) [2]: 1.49
- glycan array binding signal (z-score) [3]: -0.24
- glycan array binding signal (z-score) [4]: 0.674
- glycan array binding signal (z-score) [5]: 1.02
- glycan array binding signal (z-score) [6]: 1.29
- glycan array binding signal (z-score) [7]: -0.168
- glycan array binding signal (z-score) [8]: 0.653
- glycan array binding signal (z-score) [9]: 0.107
- glycan array binding signal (z-score) [10]: -0.179
- glycan array binding signal (z-score) [11]: 0.084
- glycan array binding signal (z-score) [12]: -0.226
- glycan array binding signal (z-score) [13]: 0.551
- glycan array binding signal (z-score) [14]: 0.63
- glycan array binding signal (z-score) [15]: 0.697
- glycan array binding signal (z-score) [16]: 0.63
- glycan array binding signal (z-score) [17]: -0.198
- glycan array binding signal (z-score) [18]: -0.23
- glycan array binding signal (z-score) [19]: -0.169
